This experiment has as its system PANC-1 cells. In words: Drug combination viability screen (ATPlite, 72 h). The following applies: Homo sapiens. It is filed as cell-based. The procedure: Cell viability was assessed by measuring ATP levels to indicate metabolic activity.
Afterward, small amounts were transferred to 384-well intermediate plates (Greiner Bio-One GmbH, Germany). […] For drug combination screening, 1000 to 5000 cells were seeded into 384-well plates (CulturPlate™, Perkin Elmer, MA, USA) using a Multidrop™ Combi Reagent Dispenser (Thermo Scientific, MA, USA) in 50 µl medium per well 24 h prior to drug treatment (seeding densities see Appendix Table S1). […] The final DMSO concentration in each well was 0.2%. […] Eight wells per plate without library drug served as negative controls, and sixteen wells per plate containing 5 µM Staurosporine served as positive controls. Control plates not containing any drug were used to correct for incubation effects, and data quality was assessed by calculation of Z-prime of positive and negative controls according to1 Z-prime=1−3SDpos+3SDneg/[…] where SD is the standard deviation. […] Dose–response curves from the experimental and hypothetical data were compared, and shifts in AUC were used to describe combination effects (AUC∆ = AUChypothetical − AUCexperimental). […] Only combinations with R^2 > 0.8 in both conditions were considered in the synergy analysis.
(Cellular ATP, detected with luciferase, serves as a proxy for viable cell number.)

As a reminder, the EC50 is the concentration giving half of the maximal effect.

The source holds more than one record for some entries. Only these are listed. The source may hold further records. Results that share an entry appear to be repeats (runs, samples, wells or individuals).

`Nc1ccn([C@@H]2O[C@H](CO)[C@@H](O)C2(F)F)c(=O)n1` [GEM, Gemcitabine]: the EC50 is 72 nM and 72.4 nM [columns of one line].

Values taken from publication PMC11876601 (Molecular Systems Biology, 2025).
